# In all, about 110,000 compounds went through this assay and about 230 (0.21%) showed an effect of 50% or more. Some of the results follow.
# Biological target: DPAP1 (Plasmodium falciparum, UniProt Q8IIJ9)
# Assay: primary screen, percent inhibition; read by cleavage of a fluorogenic dipeptide substrate; higher = more effect of the substance
# Parameters: species or system P. falciparum D10 trophozoite lysates; single well
# 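Further: 30 min substrate incubation versus DMSO and 10 µM JCP410 controls.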
# DPAP1, sequence (Q8IIJ9 whole entry, looked up): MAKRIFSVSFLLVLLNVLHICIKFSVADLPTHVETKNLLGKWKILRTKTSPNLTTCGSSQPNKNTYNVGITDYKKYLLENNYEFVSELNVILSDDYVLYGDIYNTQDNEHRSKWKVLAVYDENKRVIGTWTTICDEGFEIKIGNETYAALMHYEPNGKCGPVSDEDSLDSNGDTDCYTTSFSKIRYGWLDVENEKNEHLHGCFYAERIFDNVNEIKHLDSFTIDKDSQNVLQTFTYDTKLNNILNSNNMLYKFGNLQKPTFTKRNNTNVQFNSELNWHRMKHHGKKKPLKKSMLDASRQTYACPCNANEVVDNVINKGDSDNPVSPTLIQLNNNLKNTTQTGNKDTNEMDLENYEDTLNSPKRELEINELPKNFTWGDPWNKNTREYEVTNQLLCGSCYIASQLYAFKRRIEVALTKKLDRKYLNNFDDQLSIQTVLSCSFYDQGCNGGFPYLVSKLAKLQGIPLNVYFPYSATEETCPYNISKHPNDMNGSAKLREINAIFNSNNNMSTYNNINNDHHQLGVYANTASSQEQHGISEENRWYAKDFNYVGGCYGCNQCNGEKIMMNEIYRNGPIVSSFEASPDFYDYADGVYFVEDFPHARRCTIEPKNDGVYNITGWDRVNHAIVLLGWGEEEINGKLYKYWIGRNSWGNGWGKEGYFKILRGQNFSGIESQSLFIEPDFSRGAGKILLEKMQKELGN
row,SMILES,% Inhibition @ 10 uM [%]
1,CCN1CCN(Cc2ccco2)CC1,-4.35
2,CCC(C)N(CCNC(=O)Cn1ncc2c3ccccc3nc-2c1O)Cc1ccco1 (stereo not shown),1.43
3,Cc1ccc(Sc2cc(C(=O)NCCN(C)C)c3ccccc3n2)cc1,-0.406
4,CCOc1ccc(-c2ncnn2-c2cccc(C(F)(F)F)c2)cc1,-0.0953
5,O=C(CCCCn1c(=O)[nH]c2ccsc2c1=O)NCCC1=CCCCC1,-0.972
6,CC(C)COc1ccc2c(c1)c1c3c([n+](C)ccn32)CCC1,0.565
7,CCC(C)NC(=O)C1CCN(c2nnc(C)c3c(C)n(-c4ccccc4)nc23)CC1 (stereo not shown),-0.486
8,O=c1c(Cl)c(N2CCOCC2)cnn1-c1nc2ccccc2o1,-1.07
9,N#CCNC(=O)[C@H](CC1CCCCC1)NC(=O)c1ccco1,-1.83
10,COc1ccccc1S(=O)Cc1ccc(C(=O)NCc2ccccc2Cl)o1 (stereo not shown),0.458
11,O=C(NC1CCCCCC1)c1nsc2ccccc12,-7.02
12,O=C(CN1CCN(Cc2ccccc2)C1=O)NCCc1ccccc1,-0.704
13,CC(Cc1ccccc1F)N1CCN(c2ccccc2)CC1 (stereo not shown),-3.42
14,O=C(NCC1CCCC1c1ccccc1)C1c2ccccc2C(=O)N2CCc3ccccc3C12 (stereo not shown),5.12
15,CCOC(=O)C1=C(C)N=c2s/c(=C/c3ccc(OC)cc3)c(=O)n2C1c1ccccc1F (stereo not shown),5.94
16,Cc1c(Cl)cccc1NC(=O)c1cccc(Br)c1,-3.65
17,CN1CCN(Cc2c(NC(=O)c3ccccc3F)sc3c2CCC3)CC1,-4.72
18,Nc1ccccc1C(=O)Nc1ccc(F)cc1,-4.63
19,Cn1c(=O)c2c(nc(Sc3ncccn3)n2Cc2ccccc2Cl)n(C)c1=O,-2.71
20,c1ccc2c(CCNC3CCCCCC3)c[nH]c2c1,1.57
21,COc1cccc(CN2CCc3ccccc3C2)c1,4.81
22,O=C(CSc1nc2ccc(NC(=O)c3ccccc3F)cc2s1)NC1CC1,-3.19
23,CC1=C(C(=O)Nc2ccccc2)C(c2ccccc2)N2C(=O)CSC2=N1 (stereo not shown),2.09
24,Cc1cccc(NCN2C(=O)C3C4C=CC(C4)C3C2=O)c1 (stereo not shown),-7.61
25,Cc1ccc(S(=O)(=O)NCC/N=C/c2c[nH]c3ccccc23)cc1,3.72
26,CCCc1[nH]nc2c1C(=O)CC(CC(C)SCC)C2 (stereo not shown),-6.29

row,SMILES,% Inhibition @ 10 uM [%]
1,Cc1ccc2c(c1Br)C1(C(=O)N2)C(C#N)=C(N)OC2=C1C(=O)CC(c1ccco1)C2 (stereo not shown),5.67
2,CC1CC(NC(=O)C2C3CCC(O3)C2C(=O)O)CC(C)(C)C1 (stereo not shown),0.76
3,Cc1ccc(C)c(-c2csc(NC(=O)c3ccnn3C)c2C#N)c1,1.43
4,C=CCOc1ccc(/C=c2\sc3nc(-c4ccccc4OC)nn3c2=O)cc1,0.561
5,CCCSc1nnc2nc3c(nn12)c1ccccc1n3C,0.415
6,COc1ccc(Cl)cc1/C=C1\S/C(=N/c2ccc(C(=O)O)cc2)N(C)C1=O,-9.45
7,N#Cc1cnn2c(C(F)(F)F)cc(C34CC5CC(CC(C5)C3)C4)nc12,-0.99
8,COc1ccc2cc(C=O)c(O)nc2c1,5.88
9,CC(C)CC1NC(=O)C(C#N)=C(SCc2ccccc2)S1 (stereo not shown),-5.01
10,CC(NC(=O)c1ccccc1NC(=O)c1ccc(CN2CCOCC2)cc1)c1ccccc1 (stereo not shown),-6.07
11,Cc1ccc(NC(=O)c2c([N+](=O)[O-])ncn2C)cc1,1.24
12,Cc1ccc(CNC(=O)Nc2nnc(N3CCCC(C)C3)s2)cc1 (stereo not shown),-1.08
13,CCCSc1ccc2[nH]c(NC(=O)CSc3nc(SC)ns3)nc2c1,0.221
14,CCN1C(=O)/C(=C/c2c(OC)cc(OC)cc2OC)C(=O)NC1=S,-6.22
15,CC1CCCC(C)N1C(=O)C1CC(c2ccc(F)cc2)=NO1 (stereo not shown),-5.79
16,CN1C(=O)NC(=O)/C(=C/c2cccc(OCC(=O)O)c2)C1=O,2.94
17,CC(NC(=O)CN1C(=O)c2cccc3cccc1c23)c1ccccc1 (stereo not shown),-5.35
18,CCCCCCCCCC(=O)c1c(C)[nH]c(C(=O)OCC)c1C,-2.51
19,CCN(CC)Cc1nc(O)c2ccccc2n1,-3.04
20,CC1(C)CC2CC(C)(CN2C(=O)c2cc(-c3ccc(O)cc3)on2)C1 (stereo not shown),0.0654
21,Cc1ccc(N2CCN(C(=O)c3ccccc3NC(=O)C3CC=CCC3C(=O)O)CC2)cc1 (stereo not shown),2.48
22,CCn1ncc(CNC(=O)c2cc3nc(-c4ccc(C)c(C)c4)cc(C(F)(F)F)n3n2)c1C,7.04
23,COc1ccc(CNC(=O)C(NS(=O)(=O)c2cccs2)c2ccccc2)cc1 (stereo not shown),0.0654
24,CN(CCC#N)C(=O)c1cc2c(s1)-c1ccccc1OC2,-4.85
25,CCOCCCNC(=O)C(c1ccc(C)cc1)N(Cc1cccs1)C(=O)c1ccc(O)nc1 (stereo not shown),-5.57
26,Oc1nc(SCc2ccccc2F)nc2c1CCCC2,-3.94

row,SMILES,% Inhibition @ 10 uM [%]
1,Cc1nc(O)c2c(n1)OC(N)=C(C#N)C2c1ccccc1Cl (stereo not shown),-2.18
2,CCN1CCN(C(=O)c2cc(-c3ccc(F)cc3)no2)CC1,4.59
3,O=C1C2ON(c3ccc(Cl)cc3)C(c3ccco3)C2C(=O)N1Cc1ccccc1 (stereo not shown),-5.07
4,CCOCCCNC(=O)c1ccc2c(c1)C1C3CCC(C3)C1C(c1ccccc1)N2 (stereo not shown),1.92
5,CN(C)CCN(C(=O)COc1ccc(Cl)cc1)c1nc2cc3c(cc2s1)OCO3,2.72
6,O=S(=O)(Nc1ccc(Br)cc1)c1ccc(Br)cc1,-5.23
7,CC(=O)c1ccc(NC(=O)/C=C/c2ccc3c(c2)OCO3)cc1,-2.12
8,N=C(NC(=O)c1ccccc1)N1CCC(C(N)=O)(N2CCCCC2)CC1,4.83
9,Cc1cccc(OCCCCn2c(C)nc3ccccc32)c1,1.12
10,CC(C)CN1CC1C(=O)NCc1ccccc1 (stereo not shown),0.132
11,CCCc1cc(C(=O)NCc2ccccc2)no1,-7.15
12,COc1ccc(-c2nn(C)c3sc(C(=O)NCc4ccc(F)cc4)cc23)cc1OC,1.02
13,CC(C(=O)NCCC1=CCCCC1)n1c(=O)c2cccn2c2cccnc21 (stereo not shown),-2.39
14,O=C(Nc1nc[nH]n1)c1ccc(C(=O)Nc2nc[nH]n2)cc1,-2.63
15,COc1cc(C(=O)N2CCN(C(=O)c3cccnc3)CC2)cc(OC)c1OC,-3.02
16,Cc1ccc(-n2ncc(C(=O)Nc3cccnc3)c2C2CCN(C(=O)OC(C)(C)C)CC2)c(C)c1,-2.72
17,Cc1ccccc1-n1nnc(-c2nc(-c3cccs3)no2)c1N,-0.485
18,O=C1OC(c2cc(F)c(F)cc2Cl)=N/C1=C\c1ccccc1,2.92
19,CCCCOc1ccc(C2SCC(=O)Nc3c2c(C)nn3-c2ccccc2)cc1 (stereo not shown),-11.6
20,Cc1coc2c1c(C)cc1oc(=O)c(CC(=O)N3CCCC3)c(C)c12,0.895
21,O=C(NCc1ccccc1F)c1nc(Cn2cc(Br)cn2)no1,-2.05
22,Cc1ccc(C)n1-c1nnc(N2CCC(C(=O)NC3CCN(Cc4ccccc4)CC3)CC2)s1,-0.522
23,CC(C)C[C@H](NC(=O)c1ccc(OC2C=CCCC2)cc1)C(=O)NCC#N (stereo partly shown),1.71
24,CCN(CC)C(=O)CN1C(=O)COCC1=O,1.63
25,O=C1NC(c2ccc(OC(F)F)cc2)C(C(=O)c2ccccc2)C(O)(C(F)(F)F)N1 (stereo not shown),0.873
26,CCOc1ccc(NC(=O)c2ccc(Cn3nc(C)cc3C)o2)cc1,7.76

row,SMILES,% Inhibition @ 10 uM [%]
1,O=C(NCc1noc2ccccc12)Nc1cccnc1Cl,1.95
2,Cc1[nH]c2ccccc2c1C(C#N)(C#N)C1C(=O)c2ccccc2C1=O,5.98
3,CC1=CC(C)C(C2OCC(CN3CCCCC3)O2)C(C)C1 (stereo not shown),3.16
4,Cc1ccc(S(=O)(=O)N(CC(=O)N2CCCCCC2)c2ccc(Cl)cc2)cc1,-4.43
5,O=C1NC(=S)/C(=C\c2ccccc2)S1,-6.7
6,CCCN(Cc1cccs1)C(=O)NCc1ccccc1,-2.85
7,CC1=CCC2C(=O)N(c3ncccn3)C(=O)C2C1 (stereo not shown),0.275
8,CC(=O)c1cnn(-c2cc(Oc3ccccc3C)ncn2)c1C,1.59
9,Cc1ccccc1OCCCn1c(C(C)O)nc2ccccc21 (stereo not shown),8.71
10,CCOc1ccc(C(=O)/C=C/c2ccccc2F)cc1,-7.15
11,O=C1N/C(=C/c2ccccc2)C(=O)N1Cc1ccccc1F,6.18
12,COc1ccc(CCNC(=O)/C=C\C(=O)O)cc1OC,-2.26
13,CC(C)n1c(SCC(N)=O)nc2c(oc3ccccc32)c1=O,-5.54
14,Cn1c2c(c(=O)n(C)c1=O)CN(C1CCCCC1)CN2,-1.08
15,O=[N+]([O-])c1cccc(CN2CCN(c3cccc(C(F)(F)F)c3)CC2)c1,-1.92
16,O=C(Nc1ccccc1C#Cc1ccccc1)c1ccccc1F,2.91
17,O=C(COc1ccc(Br)cc1)Nc1ccc(S(=O)(=O)N2CCCC2)cc1,3.35
18,O=C(Nc1nccs1)c1cc2ccccc2c(=O)s1,-4.62
19,COc1ccc(-c2nnc(SC3CCOC3=O)n2-c2ccccc2)cc1 (stereo not shown),4.61
20,O=C(CCCc1cn(Cc2ccccc2Cl)c2ccccc12)N1CCOCC1,4.07
21,Cc1cc(NS(=O)(=O)c2ccc(NC(=O)COc3ccccc3C(C)C)cc2)no1,8.45
22,CCCNC(=O)C(C)SCc1ccccc1 (stereo not shown),0.514
23,O=C(COc1ccccc1Cl)Nc1cnn(Cc2ccccc2)c1,-4.52
24,COc1ccccc1C(=O)Oc1cc(=O)oc2ccccc12,1.31
25,NC(=S)Nc1ccc2c(c1)Nc1ccccc1CC2,2.36
